Source: publication PMC4336329 (PLoS ONE, 2015)
The whole screen tested about 310,000 compounds, of which about 14,000 (4.5%) showed an effect of 50% or more. The effect is printed as a negative number. The list shows a part of the results.

target: human ether-à-go-go-related gene (hERG) potassium channel (human, UniProt Q12809); assay: primary screen, population patch clamp on CHO cells stably expressing hERG
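Also: peak tail current of the secondary pulse compared with the same well before compound.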

Chain of human ether-à-go-go-related gene (hERG) potassium channel (Q12809 whole entry, looked up): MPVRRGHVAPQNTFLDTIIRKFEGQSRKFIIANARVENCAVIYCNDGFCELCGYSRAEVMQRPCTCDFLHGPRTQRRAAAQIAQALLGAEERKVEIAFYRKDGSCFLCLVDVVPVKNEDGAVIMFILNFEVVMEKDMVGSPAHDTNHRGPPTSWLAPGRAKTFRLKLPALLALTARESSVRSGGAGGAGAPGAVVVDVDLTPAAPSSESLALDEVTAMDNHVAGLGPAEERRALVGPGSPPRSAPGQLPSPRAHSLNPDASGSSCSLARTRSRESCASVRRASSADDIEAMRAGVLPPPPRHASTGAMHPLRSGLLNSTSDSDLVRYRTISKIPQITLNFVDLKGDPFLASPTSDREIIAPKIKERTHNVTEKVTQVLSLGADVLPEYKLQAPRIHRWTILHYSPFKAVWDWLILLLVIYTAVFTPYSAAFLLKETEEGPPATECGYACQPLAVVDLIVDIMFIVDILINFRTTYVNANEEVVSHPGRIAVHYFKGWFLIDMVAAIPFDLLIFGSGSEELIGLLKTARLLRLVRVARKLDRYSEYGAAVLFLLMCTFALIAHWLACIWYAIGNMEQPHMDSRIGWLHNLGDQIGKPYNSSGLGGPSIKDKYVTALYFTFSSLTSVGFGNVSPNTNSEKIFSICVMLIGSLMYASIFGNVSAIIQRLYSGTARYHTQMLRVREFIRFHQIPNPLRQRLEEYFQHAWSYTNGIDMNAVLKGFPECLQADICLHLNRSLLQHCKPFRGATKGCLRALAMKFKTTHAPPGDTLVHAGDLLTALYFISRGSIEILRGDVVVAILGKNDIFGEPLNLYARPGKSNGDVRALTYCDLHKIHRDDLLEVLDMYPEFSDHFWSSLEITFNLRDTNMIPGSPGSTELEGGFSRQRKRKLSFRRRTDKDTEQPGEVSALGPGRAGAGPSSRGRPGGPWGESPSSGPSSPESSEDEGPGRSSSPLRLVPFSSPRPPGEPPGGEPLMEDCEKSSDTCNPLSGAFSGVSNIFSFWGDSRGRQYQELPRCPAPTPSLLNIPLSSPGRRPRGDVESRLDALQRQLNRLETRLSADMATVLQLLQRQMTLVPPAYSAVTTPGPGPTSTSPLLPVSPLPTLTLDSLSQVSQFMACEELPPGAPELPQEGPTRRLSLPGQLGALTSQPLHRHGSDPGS

SMILES	hERG current change (%, negative = inhibition) at 10uM [%]
CN1CC=C2C(C#N)=C(N)C(C#N)(C#N)C(CCc3ccccc3)C2C1 (stereo not drawn)	-22.6
CCOc1c(OC)cc(C2C(C#N)=C(N)Oc3n[nH]c(-c4ccncc4)c32)cc1OC (stereo not drawn)	-2.96
COc1cc(-c2noc(C)c2C#CC2(N)CCCCC2)cc(OC)c1OC	-29.7
Cc1ccc(N2C(=O)CC(c3c[nH]c4ccccc34)C2=O)cc1 (stereo not drawn)	8.01
CC1CC(C)CN(C(=O)c2ccc(C(=O)c3ccccc3)cc2)C1 (stereo not drawn)	-24.3
CCC(=O)OCCn1c(=O)c2cc3c(=O)n(CCOC(=O)CC)c(=O)c3cc2c1=O	-37.7
S=C(NCCc1ccccc1)N1CCN(Cc2ccc(Cl)c(Cl)c2)CC1	-2.53
O=C1NC2(CCCCC2)N=C1c1ccccc1	10.3
Cc1nn(CCCC(=O)Nc2ccc(Br)cc2F)c(C)c1[N+](=O)[O-]	-43.7
O=C(Nc1cccc(C(=O)NC2CC2)c1)c1ccc(Cl)c(S(=O)(=O)N2CCOCC2)c1	-21.1
CCOC(=O)c1ccc(NC(=O)c2nc[nH]c2C(=O)N[C@@H](C)C(=O)OC(C)(C)C)cc1	17.7
O=C(CCS(=O)(=O)c1ccccc1)Nc1cccc2c1C(=O)NC2=O	6.51
CCn1c(SCC(=O)NC2CC2)nnc1C(C)Oc1ccccc1 (stereo not drawn)	14.6
O=C(CSc1ccccn1)NCc1ccc2c(c1)OCO2	3.5
CC(=O)c1ccc(NC(=O)c2noc(C)c2[N+](=O)[O-])cc1	10.2
Cc1onc(-c2c(Cl)cccc2Cl)c1C(=O)N1CCN(c2ccccc2)CC1	-4.8
COC(=O)c1ccc(NC(=O)CSc2nc3cccnc3n2C)cc1	20.4
COc1cc2nc(N(CCN(C)C)C(=O)c3ccc(S(=O)(=O)N(C)CC4CCCO4)cc3)sc2cc1OC.Cl (stereo not drawn)	-9.01
O=C(COc1cccc2ccccc12)N1c2ccccc2CCc2ccccc21	-4.67
COc1ccc(NS(=O)(=O)c2nnc(NC(=O)c3ccccc3F)s2)cc1	5.61
O=C(O)c1ccc(N2CCCCCC2)c(N2C(=O)c3ccccc3C2=O)c1	2.37
COc1ccc(NC(=O)NNC(=O)COc2ccc3cc(Br)ccc3c2)cc1	20.6
CC(C)C(=O)NCc1cc(-c2ccc(Cl)cc2)no1	-4.69
Cc1ccc(CCNC(=O)C2CCN(S(=O)(=O)c3ccc4c(c3)NC(=O)CO4)CC2)cc1	-1.82
COC(=O)C1=C(C)N(Cc2ccco2)C(=O)N[C@H]1c1ccc(Br)cc1	4.35
Clc1ccc(Cl)c(-c2nn3c(COc4ccccc4)nnc3s2)c1	3.08
CC1CCC2C(=O)N(c3ccc(NC4CCN(Cc5ccccc5)CC4)c([N+](=O)[O-])c3)C(=O)C2C1 (stereo not drawn)	-41.2

SMILES	hERG current change (%, negative = inhibition) at 10uM [%]
CCOc1ccc(S(=O)(=O)N2CCCC(C(=O)N3CCN(c4ccccc4)CC3)C2)cc1 (stereo not drawn)	-56.3
CC(=O)c1cccc(NC(=O)N2CCC(c3nnc(SCC(N)=O)n3C)CC2)c1	11.4
Cc1onc(-c2ccccc2)c1CNS(=O)(=O)c1ccc(F)cc1F	-4.91
O=C(NCCOCCNC(=O)OCc1ccccc1)OCc1ccccc1	-24.9
CCCOc1ccc(C(=O)c2ccccc2C(=O)O)cc1OCCC	14.4
CCOC(=O)c1ccc(-n2c(C)nc3c(cnn3-c3ccc(Cl)cc3)c2=O)cc1	-15.5
COCCNC(=O)NC12CC3(C)CC(C)(CC(C)(C3)C1)C2	-14.4
Brc1ccc(-c2cn3c(n2)CCc2ccc4cccnc4c2-3)cc1	12.5
O=C(NCCNCc1cccs1)c1ccccc1F	10.4
OCCC1CN(Cc2ccc(-c3ccco3)cc2)CCN1Cc1ccsc1 (stereo not drawn)	-53.8
COc1ccc(C(=O)O)cc1S(=O)(=O)N(CCc1ccccc1)Cc1ccccc1	21.2
CCOC(=O)C1=C(COC(=O)c2cccc(Br)c2)NC(=O)NC1C (stereo not drawn)	-1.37
COc1ccc(NC(=O)COc2ccc(S(=O)(=O)N3CCOCC3)cc2C)cc1OC	17.6
O=C(Nc1ccccc1N1CCN(C(=O)c2ccccc2)CC1)c1ccc2c(c1)OCO2	-60.7
CCN(CC(=O)Nc1ccc(NC(C)=O)cc1)C(=O)/C=C/c1ccc(C)o1	-5.71
CN1/C(=C/C=N/n2cnnc2)C(C)(C)c2ccccc21	-1.92
COc1ccc(CCNC(=O)Cc2cc(OC)c(OC)cc2Br)cc1OC	9.45
COC(=O)c1cccc(-n2c(CCC(=O)O)ccc2-c2cccs2)c1	7.21
O=C1NCCCC1C(=O)N/N=C/c1ccc(Cl)cc1 (stereo not drawn)	-9.96
Cc1ccc(C(C(=O)NCCc2ccccc2)N(C(=O)c2csnn2)C2CC2)o1 (stereo not drawn)	-43.8
COC(=O)c1c(NC(=O)CSc2ncn[nH]2)sc(C)c1C	3.23
CC(/C=C1\SC(=S)N(NC(=O)c2ccncc2)C1=O)=C\c1ccccc1	26.1
Nc1[nH]ncc1S(=O)(=O)c1ccccc1	11.4
COc1ccccc1CCC(=O)N(C)CC(=O)Nc1ccc(Cl)c(C(F)(F)F)c1	4.03
O=[N+]([O-])c1ccc(Oc2ccc(F)cc2)c2ccncc12	-37.4
O=C(CCc1ccccc1)NNC(=O)c1ccccc1Cl	17.5
Nc1nc2c(nc(Br)n2[C@@H]2O[C@@H]3COP(=O)([O-])O[C@H]3[C@H]2O)c(=O)[nH]1.[Na+]	2.3
